Hit rate of the full screen: of about 39,000 compounds, about 220 (0.56%) showed activity. The list shows a part of the results.
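Also: static incubation at 37 °C against the wild-type strain, values averaged over two biological replicates.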

In this test the test system is Escherichia coli K-12 BW25113. Put plainly: relative growth (OD600 normalised to plate interquartile mean) (fraction); higher = less growth inhibition, active = 0.2 or less. As to conditions: 50 µM; LB; incubation time: overnight (16-24 h).
As to `C[C@@H]1CN([C@H](C)CO)C(=O)c2cc(NS(=O)(=O)c3ccc(Cl)cc3)ccc2O[C@@H](C)CCCCO[C@H]1CN(C)Cc1ccc(Cl)c(Cl)c1`, the relative growth was inactive: 0.983.

In the case of `CC(C)NC(=O)Nc1ccc2c(c1)CC(=O)N([C@@H](C)CO)C[C@@H](C)[C@@H](CN(C)Cc1ccc(Oc3ccccc3)cc1)O2`, the relative growth was inactive: 1.04.

Consider `C[C@H](CO)N1C[C@H](C)[C@@H](CN(C)S(C)(=O)=O)Oc2c(NC(=O)Nc3ccc(C(F)(F)F)cc3)cccc2C1=O`, for which the relative growth is inactive: 1.

`Cc1ccc(S(=O)(=O)Nc2ccc3c(c2)C(=O)N([C@@H](C)CO)C[C@H](C)[C@@H](CN(C)C(=O)NC2CCCCC2)OCCCC[C@@H](C)O3)cc1`: the relative growth is inactive: 1.01.

On to `Nn1c(C(F)(F)F)n[nH]c1=S`, for which the relative growth is inactive: 1.01.

As to `O=C(NC1(C(F)(F)F)Oc2cc(Cl)c(Cl)cc2O1)C1=C(N2CCOCC2)/C(=C/c2ccccc2)CC1`, the relative growth is inactive: 0.595.

As for `Cc1noc(C)c1S(=O)(=O)N(C)C[C@H]1Oc2ccc(NS(=O)(=O)c3cn(C)cn3)cc2CC(=O)N([C@H](C)CO)C[C@@H]1C`, the relative growth was inactive: 1.01.

As for `C[C@H]1CN([C@@H](C)CO)C(=O)Cc2cc(NC(=O)Nc3cccc4c3CCCC4)ccc2O[C@H]1CN(C)S(=O)(=O)c1ccc(Cl)cc1`, the relative growth was inactive: 1.01.

With `C[C@H]1CN([C@@H](C)CO)C(=O)CCCn2nncc2CO[C@@H]1CN(C)S(=O)(=O)c1ccc(Oc2ccccc2)cc1`, the relative growth was inactive: 0.997.

Turning to `Cc1noc(C)c1NC(=O)Nc1ccc2c(c1)C(=O)N([C@@H](C)CO)C[C@@H](C)[C@H](CN(C)S(=O)(=O)c1cccs1)OCCCC[C@H](C)O2`, the relative growth is inactive: 1.

Take `COc1ccc(NC(=O)N(C)C[C@@H]2OCCCC[C@H](C)Oc3ccc(NS(=O)(=O)c4c(C)noc4C)cc3C(=O)N([C@@H](C)CO)C[C@@H]2C)cc1`: the relative growth was inactive: 0.934.

In the case of `C[C@H](CO)N1C[C@H](C)[C@H](CN(C)Cc2ccc(-c3ccccc3)cc2)Oc2ccc(NC(=O)Cc3ccccc3)cc2CC1=O`, the relative growth was inactive: 1.

Turning to `COc1ccc(CN(C)C[C@H]2Oc3ccc(NS(=O)(=O)c4c(C)noc4C)cc3C(=O)N([C@@H](C)CO)C[C@@H]2C)cc1`, the relative growth is inactive: 1.01.

With `C[C@H]1CN([C@@H](C)CO)C(=O)Cc2cc(NC(=O)c3ccncc3)ccc2O[C@H]1CN(C)C(=O)NC1CCCCC1`, the relative growth was inactive: 1.01.

Turning to `C[C@H](CO)N1C[C@H](C)[C@@H](CN(C)Cc2ccc(Oc3ccccc3)cc2)Oc2ccc(NC(=O)Cn3cnnn3)cc2C1=O`, the relative growth is inactive: 0.998.

For the compound `C[C@H]1CN([C@@H](C)CO)C(=O)c2cccc(NC(=O)NC3CCCCC3)c2O[C@@H]1CN(C)C(=O)Nc1ccc(C(F)(F)F)cc1`, the relative growth is inactive: 0.766.

`CC(=O)OC1CCC2(C)C3=C(CCC2C1(C)C)C1(C)CCC(C(C)CCC=C(C)C)C1(C)CC3` (stereo not drawn): the relative growth was inactive: 0.975.

For the compound `O=C(N[C@@H]1CC[C@@H](CC(=O)N2CCOCC2)O[C@H]1CO)c1ccccn1`, the relative growth was inactive: 1.01.

Take `COC(=O)Nc1nc2cc(C(=O)c3ccccc3)ccc2[nH]1`: the relative growth was inactive: 1.05.

In the case of `Cc1cc(-c2ccccc2)oc2cc3ccccc3c1-2`, the relative growth is inactive: 1.02.

Turning to `C[C@H]1CN([C@@H](C)CO)C(=O)c2cc(C#CCc3ccccc3)cnc2O[C@@H]1CN(C)C(=O)Cc1cccnc1`, the relative growth was inactive: 1.01.

Take `O=C(O)c1cccc(O)c1O`: the relative growth was inactive: 1.01.

As for `C[C@H]1CN([C@@H](C)CO)C(=O)c2cc(NC(=O)Cc3ccccc3)ccc2O[C@@H]1CN(C)Cc1ccc(C(F)(F)F)cc1`, the relative growth was inactive: 1.03.

In the case of `NCC[C@@H]1CC[C@@H](NC(=O)c2ccccc2F)[C@@H](CO)O1`, the relative growth is inactive: 1.05.

`CC(=O)c1cccc(C(F)(F)F)c1`: the relative growth was inactive: 0.96.

On to `C[C@H]1CN([C@@H](C)CO)C(=O)Cc2cc(NC(=O)Cn3cnnn3)ccc2O[C@@H]1CN(C)S(=O)(=O)c1ccccc1`, for which the relative growth was inactive: 0.997.

On to `C[C@@H]1CN([C@H](C)CO)S(=O)(=O)c2ccc(C#Cc3ccccc3F)cc2O[C@H]1CN(C)C(=O)Cc1ccncc1`, for which the relative growth is inactive: 0.987.

Regarding `COc1ccc(NC(=O)Nc2ccc3c(c2)C(=O)N([C@H](C)CO)C[C@H](C)[C@@H](CN(C)C(=O)Nc2ccc(OC)cc2)OCCCC[C@@H](C)O3)cc1`, the relative growth is inactive: 0.982.

For `NNC(=O)C1=NO[C@H]2COC3(CCN(c4ncccn4)CC3)OC[C@@H]12`, the relative growth was inactive: 0.972.

Take `Cc1ccc(S(=O)(=O)N(C)C[C@H]2Oc3ccc(NS(=O)(=O)c4cn(C)cn4)cc3C(=O)N([C@@H](C)CO)C[C@@H]2C)cc1`: the relative growth is inactive: 0.964.

For the compound `COCCNC(=O)C[C@@H]1CC[C@@H]2[C@H](COc3ccc(NC(=O)Nc4cccc(F)c4)cc3C(=O)N2C)O1`, the relative growth is inactive: 0.993.

On to `C[C@H]1CN([C@@H](C)CO)C(=O)c2cc(NC(=O)Nc3ccccc3)ccc2O[C@H]1CN(C)Cc1ccc(C(F)(F)F)cc1`, for which the relative growth is inactive: 0.98.

Take `C[C@@H]1CN([C@H](C)CO)C(=O)c2cc(NC(=O)Nc3cccc4ccccc34)ccc2O[C@@H](C)CCCCO[C@@H]1CN(C)C(=O)NC1CCCCC1`: the relative growth was inactive: 1.03.

Regarding `Cc1ncc([N+](=O)[O-])cc1C(=O)O`, the relative growth was inactive: 0.992.

As for `C[C@H]1CN([C@@H](C)CO)C(=O)CCCn2nncc2CO[C@@H]1CN(C)C(=O)Nc1cccc(Oc2ccccn2)c1`, the relative growth was inactive: 0.975.

Consider `CO[C@H]1CN(C)C(=O)c2ccc(NS(=O)(=O)c3cn(C)cn3)cc2OC[C@@H](C)N(CC2CC2)C[C@@H]1C`, for which the relative growth was inactive: 1.

As for `CCC(=O)N(C)C[C@@H]1Oc2ncc(C#C[C@H](C)O)cc2C(=O)N([C@H](C)CO)C[C@@H]1C`, the relative growth is inactive: 1.02.

As for `O=C(CN1CCOCC1)NCC[C@@H]1CC[C@@H](NC(=O)Nc2ccccc2)[C@@H](CO)O1`, the relative growth is inactive: 1.

For `Nc1ccc(-n2cnnn2)cc1`, the relative growth is inactive: 0.933.

As to `C[C@H](CO)N1C[C@H](C)[C@@H](CN(C)Cc2ccc(C(=O)O)cc2)Oc2c(NC(=O)C3CC3)cccc2C1=O`, the relative growth is inactive: 0.995.

In the case of `C[C@H]1CN([C@@H](C)CO)C(=O)Cc2cc(NS(=O)(=O)c3cn(C)cn3)ccc2O[C@H]1CN(C)Cc1ccc(C(=O)Nc2ccccc2N)cc1`, the relative growth was inactive: 1.

In the case of `COCCNC(=O)[C@H]1[C@H](CO)[C@H]2Cn3c(ccc(-c4ccccc4F)c3=O)[C@@H]1N2S(C)(=O)=O`, the relative growth is inactive: 1.

Turning to `COc1ccc(NC(=O)N(C)C[C@H]2Oc3c(NC(=O)C4CC4)cccc3C(=O)N([C@@H](C)CO)C[C@@H]2C)cc1`, the relative growth is inactive: 0.998.

In the case of `COc1ccccc1-c1ccc2c(c1)O[C@H](CN(C)CC1CCOCC1)[C@H](C)CN([C@@H](C)CO)S2(=O)=O`, the relative growth was inactive: 1.02.

Turning to `C[C@H]1CN([C@@H](C)CO)C(=O)Cc2cc(NS(=O)(=O)c3cn(C)cn3)ccc2O[C@@H]1CN(C)C(=O)Nc1ccccc1`, the relative growth is inactive: 1.02.

As for `COc1ccccc1CNC(=O)C[C@H]1CC[C@@H]2[C@H](COC[C@@H](O)CN2C(=O)Nc2ccc(Cl)cc2)O1`, the relative growth was inactive: 0.957.

As for `C[C@H](CO)N1C[C@H](C)[C@H](CN(C)S(=O)(=O)c2cn(C)cn2)Oc2ccc(NC(=O)CCCCCC(=O)Nc3ccccc3N)cc2CC1=O`, the relative growth is inactive: 0.997.

Regarding `C[C@H](CO)N1C[C@H](C)[C@@H](CN(C)Cc2ccc(C(F)(F)F)cc2)OCCCC[C@H](C)Oc2ccc(NS(=O)(=O)c3ccc(F)cc3)cc2C1=O`, the relative growth was inactive: 1.02.

As for `Cn1ncc(Br)c1C(=O)NN`, the relative growth is inactive: 0.981.

For `COc1ccc(S(=O)(=O)N(C)C[C@@H]2OCCCC[C@@H](C)Oc3ccc(NC(=O)Nc4cccc5ccccc45)cc3C(=O)N([C@@H](C)CO)C[C@@H]2C)cc1`, the relative growth is inactive: 1.01.

For the compound `C=C1CCC(O)CC1=CC=C1CCCC2(C)C1CCC2C(C)CCCC(C)C` (stereo not drawn), the relative growth was inactive: 0.932.

With `Cc1cn(C2C=CC(CO)O2)c(=O)[nH]c1=O` (stereo not drawn), the relative growth is inactive: 0.808.

In the case of `Cc1noc(C)c1NC(=O)Nc1ccc2c(c1)C(=O)N([C@@H](C)CO)C[C@@H](C)[C@H](CN(C)Cc1ccc(Cl)c(Cl)c1)O2`, the relative growth was inactive: 0.99.

For `C[C@H](CO)N1C[C@H](C)[C@H](CN(C)Cc2ccc(-c3ccccc3)cc2)Oc2c(NS(=O)(=O)c3ccc(Cl)cc3)cccc2C1=O`, the relative growth was inactive: 1.01.

Consider `O=S1(=O)C[C@H](NCCO)[C@@H](O)C1`, for which the relative growth is inactive: 0.982.

Regarding `CCOC(=O)[C@@H]1C(Cc2ccccc2)=CN(CCc2ccc(OC)c(OC)c2)C(=O)N1c1ccc(OC)cc1`, the relative growth is inactive: 1.01.

For `C[C@H]1CCCCO[C@H](CN(C)Cc2ccc(C(=O)O)cc2)[C@@H](C)CN([C@@H](C)CO)C(=O)c2cc(NC(=O)CCC(F)(F)F)ccc2O1`, the relative growth is inactive: 1.03.

In the case of `C[C@@H]1CN([C@H](C)CO)C(=O)Cc2cc(NC(=O)Nc3ccc4c(c3)OCO4)ccc2O[C@@H]1CN(C)Cc1ccc(-c2ccccc2)cc1`, the relative growth is inactive: 0.927.

Consider `Cc1noc(C)c1NC(=O)N[C@@H]1CC[C@H](CC(=O)N2CCN(C)CC2)O[C@@H]1CO`, for which the relative growth is inactive: 1.03.

Consider `C[C@@H]1CCCCO[C@@H](CN(C)Cc2ccc(C(F)(F)F)cc2)[C@@H](C)CN([C@@H](C)CO)C(=O)c2cc(NC(=O)CCC(F)(F)F)ccc2O1`, for which the relative growth was inactive: 1.02.

Regarding `N=C(NO)c1cccc(C(=N)NO)n1`, the relative growth is inactive: 0.974.

On to `C[C@@H]1CN([C@H](C)CO)C(=O)Cc2cc(NC(=O)CCC(F)(F)F)ccc2O[C@H]1CN(C)C(=O)Nc1ccc(C(F)(F)F)cc1`, for which the relative growth is inactive: 1.

For the compound `C[C@@H]1CN([C@H](C)CO)C(=O)c2c(c3ccccc3n2C)-c2ccccc2CO[C@@H]1CN(C)Cc1cccc(O)c1`, the relative growth is inactive: 0.97.
